Some of the results follow.

In the experiment the target is T1, MBP-FoxP1dN (Mus musculus, UniProt P58462 326-579).
T1 sequence: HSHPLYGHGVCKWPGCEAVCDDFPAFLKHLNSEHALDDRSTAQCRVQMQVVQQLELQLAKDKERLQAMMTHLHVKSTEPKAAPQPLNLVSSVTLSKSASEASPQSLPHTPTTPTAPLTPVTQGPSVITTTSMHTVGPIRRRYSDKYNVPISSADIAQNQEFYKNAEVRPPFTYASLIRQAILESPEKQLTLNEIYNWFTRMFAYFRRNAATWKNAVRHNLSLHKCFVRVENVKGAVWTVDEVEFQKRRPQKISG
In words: PD-seq (MBP pull-down with sequencing); 20 mM Tris-HCl pH 7.5, 100 mM NaCl, 1.5 mM MgCl2, 0.4 uM protein, 0.1 uM dsDNA library, 30 min, room temperature, amylose pull-down; high values mean tight binding. Conditions: protein: recombinant; tags: His6-MBP; chain copies: 2; dsDNA, one strand shown. Put shortly:
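The N-terminus-lacking fragment of mouse FoxP3 or FoxP1 carried a His6-MBP tag and was expressed in E. coli. At 0.4 µM it was incubated with 0.1 µM Klenow-filled degenerate double-stranded DNA library for 30 min at room temperature in Tris pH 7.5 buffer with NaCl and MgCl2, and complexes were caught on amylose resin, washed three times, released with proteinase K, PCR-barcoded and Illumina-sequenced. Binding is reads-per-million enrichment of pull-down over input with replicates pooled.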
In the case of “GATGATTGTTCTCCCAGCTGATGAATTGTCGCGGTCGAGTAAACAAATTTTCCTAATCTTTCTGTTCAAGCGCCATCTAC”, the binding signal was 0.917 RPM ratio (pull-down/input).
For “GATGATTGTTCTCCCAGCTGATGAATTACCAAGTTCGAGTAAACAAATTTTCCTAATCTTTCTGTTCAAGCGCCATCTAC”, the binding signal was 1.04 RPM ratio (pull-down/input).
“GATGATTGTTCTCCCAGCTGATGAATTGAACGATTCGAGTAAACAAATTTTCCTAATCTTTCTGTTCAAGCGCCATCTAC”: the binding signal is 0.875 RPM ratio (pull-down/input).
Take “GATGATTGTTCTCCCAGCTGATGAATTTTCTTTCTCGAGTAAACAAATTTTCCTAATCTTTCTGTTCAAGCGCCATCTAC”: the binding signal is 0.955 RPM ratio (pull-down/input).
On to “GATGATTGTTCTCCCAGCTGATGAATTCCCTCCTTCGAGTAAACAAATTTTCCTAATCTTTCTGTTCAAGCGCCATCTAC”, for which the binding signal is 0.773 RPM ratio (pull-down/input).
In the case of “GATGATTGTTCTCCCAGCTGATGAATTAATAATGTCGAGTAAACAAATTTTCCTAATCTTTCTGTTCAAGCGCCATCTAC”, the binding signal is 1.13 RPM ratio (pull-down/input).
Take “GATGATTGTTCTCCCAGCTGATGAATTGTCGTTCTCGAGTAAACAAATTTTCCTAATCTTTCTGTTCAAGCGCCATCTAC”: the binding signal is 1.12 RPM ratio (pull-down/input).
For the sequence “GATGATTGTTCTCCCAGCTGATGAATTGTATTCGTCGAGTAAACAAATTTTCCTAATCTTTCTGTTCAAGCGCCATCTAC”, the binding signal is 1.27 RPM ratio (pull-down/input).
On to “GATGATTGTTCTCCCAGCTGATGAATTTCCTTTTTCGAGTAAACAAATTTTCCTAATCTTTCTGTTCAAGCGCCATCTAC”, for which the binding signal was 0.838 RPM ratio (pull-down/input).
The figure for “GATGATTGTTCTCCCAGCTGATGAATTTCGACACTCGAGTAAACAAATTTTCCTAATCTTTCTGTTCAAGCGCCATCTAC” is 0.91 RPM ratio (pull-down/input).
With “GATGATTGTTCTCCCAGCTGATGAATTGTTGTTGTCGAGTAAACAAATTTTCCTAATCTTTCTGTTCAAGCGCCATCTAC”, the binding signal is 3.2 RPM ratio (pull-down/input).
Turning to “GATGATTGTTCTCCCAGCTGATGAATTGGATACATCGAGTAAACAAATTTTCCTAATCTTTCTGTTCAAGCGCCATCTAC”, the binding signal is 1.11 RPM ratio (pull-down/input).
As for “GATGATTGTTCTCCCAGCTGATGAATTATGAATTTCGAGTAAACAAATTTTCCTAATCTTTCTGTTCAAGCGCCATCTAC”, the binding signal is 1.03 RPM ratio (pull-down/input).
As for “GATGATTGTTCTCCCAGCTGATGAATTGAAAAGCTCGAGTAAACAAATTTTCCTAATCTTTCTGTTCAAGCGCCATCTAC”, the binding signal is 0.825 RPM ratio (pull-down/input).
The figure for “GATGATTGTTCTCCCAGCTGATGAATTATGTCCCTCGAGTAAACAAATTTTCCTAATCTTTCTGTTCAAGCGCCATCTAC” is 0.996 RPM ratio (pull-down/input).
For “GATGATTGTTCTCCCAGCTGATGAATTTTGATTATCGAGTAAACAAATTTTCCTAATCTTTCTGTTCAAGCGCCATCTAC”, the binding signal was 1.79 RPM ratio (pull-down/input).
For the sequence “GATGATTGTTCTCCCAGCTGATGAATTGGGCCTCTCGAGTAAACAAATTTTCCTAATCTTTCTGTTCAAGCGCCATCTAC”, the binding signal is 0.766 RPM ratio (pull-down/input).
As to “GATGATTGTTCTCCCAGCTGATGAATTACTGATATCGAGTAAACAAATTTTCCTAATCTTTCTGTTCAAGCGCCATCTAC”, the binding signal is 1.18 RPM ratio (pull-down/input).
Consider “GATGATTGTTCTCCCAGCTGATGAATTTCGGTTCTCGAGTAAACAAATTTTCCTAATCTTTCTGTTCAAGCGCCATCTAC”, for which the binding signal was 0.825 RPM ratio (pull-down/input).
For “GATGATTGTTCTCCCAGCTGATGAATTAACAATTTCGAGTAAACAAATTTTCCTAATCTTTCTGTTCAAGCGCCATCTAC”, the binding signal is 1.31 RPM ratio (pull-down/input).
In the case of “GATGATTGTTCTCCCAGCTGATGAATTCACTTTCTCGAGTAAACAAATTTTCCTAATCTTTCTGTTCAAGCGCCATCTAC”, the binding signal was 0.841 RPM ratio (pull-down/input).
“GATGATTGTTCTCCCAGCTGATGAATTTGATGGTTCGAGTAAACAAATTTTCCTAATCTTTCTGTTCAAGCGCCATCTAC”: the binding signal is 0.912 RPM ratio (pull-down/input).
Regarding “GATGATTGTTCTCCCAGCTGATGAATTTTCCGATTCGAGTAAACAAATTTTCCTAATCTTTCTGTTCAAGCGCCATCTAC”, the binding signal was 0.884 RPM ratio (pull-down/input).
Under “GATGATTGTTCTCCCAGCTGATGAATTACGATGTTCGAGTAAACAAATTTTCCTAATCTTTCTGTTCAAGCGCCATCTAC” stands 1.18 RPM ratio (pull-down/input); under “GATGATTGTTCTCCCAGCTGATGAATTCGACCGATCGAGTAAACAAATTTTCCTAATCTTTCTGTTCAAGCGCCATCTAC”, 0.823 RPM ratio (pull-down/input); under “GATGATTGTTCTCCCAGCTGATGAATTACGTGCGTCGAGTAAACAAATTTTCCTAATCTTTCTGTTCAAGCGCCATCTAC”, 1.08 RPM ratio (pull-down/input).
As to “GATGATTGTTCTCCCAGCTGATGAATTTACGCTATCGAGTAAACAAATTTTCCTAATCTTTCTGTTCAAGCGCCATCTAC”, the binding signal was 1.23 RPM ratio (pull-down/input).
The figure for “GATGATTGTTCTCCCAGCTGATGAATTTAGTGCATCGAGTAAACAAATTTTCCTAATCTTTCTGTTCAAGCGCCATCTAC” is 1.5 RPM ratio (pull-down/input).
As to “GATGATTGTTCTCCCAGCTGATGAATTAGAGTCATCGAGTAAACAAATTTTCCTAATCTTTCTGTTCAAGCGCCATCTAC”, the binding signal is 0.903 RPM ratio (pull-down/input).
The figure for “GATGATTGTTCTCCCAGCTGATGAATTATGCACGTCGAGTAAACAAATTTTCCTAATCTTTCTGTTCAAGCGCCATCTAC” is 1.07 RPM ratio (pull-down/input); for “GATGATTGTTCTCCCAGCTGATGAATTCTTCTTCTCGAGTAAACAAATTTTCCTAATCTTTCTGTTCAAGCGCCATCTAC” it is 0.819 RPM ratio (pull-down/input); for “GATGATTGTTCTCCCAGCTGATGAATTTTCAGCCTCGAGTAAACAAATTTTCCTAATCTTTCTGTTCAAGCGCCATCTAC” it is 0.815 RPM ratio (pull-down/input).
For “GATGATTGTTCTCCCAGCTGATGAATTTAATTTTTCGAGTAAACAAATTTTCCTAATCTTTCTGTTCAAGCGCCATCTAC”, the binding signal is 0.972 RPM ratio (pull-down/input).
With “GATGATTGTTCTCCCAGCTGATGAATTAGACTGATCGAGTAAACAAATTTTCCTAATCTTTCTGTTCAAGCGCCATCTAC”, the binding signal is 0.851 RPM ratio (pull-down/input).
Under “GATGATTGTTCTCCCAGCTGATGAATTCTTAATTTCGAGTAAACAAATTTTCCTAATCTTTCTGTTCAAGCGCCATCTAC” stands 1.1 RPM ratio (pull-down/input); under “GATGATTGTTCTCCCAGCTGATGAATTATTTACTTCGAGTAAACAAATTTTCCTAATCTTTCTGTTCAAGCGCCATCTAC”, 2.15 RPM ratio (pull-down/input).
Turning to “GATGATTGTTCTCCCAGCTGATGAATTGAATGGCTCGAGTAAACAAATTTTCCTAATCTTTCTGTTCAAGCGCCATCTAC”, the binding signal is 0.823 RPM ratio (pull-down/input).
For “GATGATTGTTCTCCCAGCTGATGAATTGTCTTAGTCGAGTAAACAAATTTTCCTAATCTTTCTGTTCAAGCGCCATCTAC”, the binding signal is 1.09 RPM ratio (pull-down/input).
On to “GATGATTGTTCTCCCAGCTGATGAATTTGAACGGTCGAGTAAACAAATTTTCCTAATCTTTCTGTTCAAGCGCCATCTAC”, for which the binding signal is 0.856 RPM ratio (pull-down/input).
Under “GATGATTGTTCTCCCAGCTGATGAATTTTACTGGTCGAGTAAACAAATTTTCCTAATCTTTCTGTTCAAGCGCCATCTAC” stands 0.796 RPM ratio (pull-down/input).

For the origin of these results see paper PMC12820563, “FoxP3 forms a head-to-head dimer in vivo and stabilizes its multimerization on adjacent microsatellites”.
